The values below come from PMC6919601, “Identification of Plasmodium dipeptidyl aminopeptidase allosteric inhibitors by high throughput screening” (PLoS ONE, 2019).

SMILES strings stand for the structures. Screen size: about 110,000 compounds; about 230 (0.21%) showed an effect of 50% or more. The list shows a part of the results.
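Note: 30 min substrate incubation versus DMSO and 10 µM JCP410 controls.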

The target in this experiment is DPAP1 (Plasmodium falciparum, UniProt Q8IIJ9). The experiment can be described thus: primary screen, percent inhibition; read by cleavage of a fluorogenic dipeptide substrate; higher = more effect of the substance. Further details: species or system P. falciparum D10 trophozoite lysates; single well.
Chain of DPAP1 (Q8IIJ9 whole entry, looked up): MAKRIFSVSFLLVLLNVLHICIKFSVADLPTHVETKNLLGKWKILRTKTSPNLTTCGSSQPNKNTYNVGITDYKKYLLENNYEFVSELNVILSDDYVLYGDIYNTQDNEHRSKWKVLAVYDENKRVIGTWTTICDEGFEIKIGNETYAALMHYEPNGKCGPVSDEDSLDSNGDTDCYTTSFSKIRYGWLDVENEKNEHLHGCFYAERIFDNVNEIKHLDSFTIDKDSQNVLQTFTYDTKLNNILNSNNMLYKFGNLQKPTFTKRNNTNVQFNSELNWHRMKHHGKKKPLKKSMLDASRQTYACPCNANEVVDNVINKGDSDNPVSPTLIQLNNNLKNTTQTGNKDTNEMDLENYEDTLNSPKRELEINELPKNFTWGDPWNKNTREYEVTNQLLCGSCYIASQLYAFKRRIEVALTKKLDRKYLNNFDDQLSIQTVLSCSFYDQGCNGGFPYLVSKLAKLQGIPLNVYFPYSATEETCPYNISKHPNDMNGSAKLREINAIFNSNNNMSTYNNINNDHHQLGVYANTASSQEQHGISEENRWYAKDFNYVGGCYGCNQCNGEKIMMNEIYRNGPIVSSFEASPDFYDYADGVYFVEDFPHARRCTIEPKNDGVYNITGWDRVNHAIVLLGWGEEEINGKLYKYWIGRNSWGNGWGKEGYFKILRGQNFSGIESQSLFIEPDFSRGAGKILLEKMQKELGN
In the case of `C=Cc1ccc(Cn2c(C(=O)O)c(C=O)c3ccccc32)cc1`, the “% Inhibition @ 10 uM” value came out at 1.63%. Consider `O=C(NCc1ccc2c(c1)OCO2)c1cnn2ccccc12`, for which the “% Inhibition @ 10 uM” value is -2.92%. As for `COc1ccc2c(Cl)c(C(=O)Nc3ccc(C(C)=O)cc3)sc2c1`, the figure is -2.45%. For `CC1CN(S(=O)(=O)c2ccc(Cl)c(C(=O)Nc3ccccc3O)c2)CC(C)O1` (stereo not drawn), the “% Inhibition @ 10 uM” value is -5.49%. As for `O=C(Nc1ccc(Cl)cn1)c1cc2c(Cl)nc3ccccc3c2s1`, the figure is 4.41%; as for `Cc1nc2ccc(S(=O)(=O)NCC(=O)NCc3ccc(F)cc3)cc2s1`, -0.72%; as for `O=C(O)c1ccccc1NS(=O)(=O)/C=C/c1ccccc1`, -6.68%. As for `CC1(C)[C@H]2CC=C(CN3CCN(Cc4ccccc4)CC3)[C@@H]1C2`, the figure is 3.48%; as for `CCC12CN3CC(C)(CN(C1)C3c1ccc(OCc3ccccc3)cc1)C2=O` (stereo not drawn), -10.8%; as for `CCOc1ccc(C(=O)N2CCN(c3ccccc3)CC2)cc1`, 2.43%.

Turning to `CC1CCC(NC(=O)CCc2nc(O)c3c4c(sc3n2)CCCC4)CC1` (stereo not drawn), the “% Inhibition @ 10 uM” value is recorded as -4.86%. As for `NC(=O)C1(N2CCCCC2)CCN(C(=O)c2ccc(F)cc2)CC1`, the figure is -5.27%; as for `c1ccc(Cn2c(-c3ccccn3)nc3ccccc32)cc1`, -4.18%; as for `COc1cc2c(cc1OC)C1C(C(=O)N3CC(C)CC(C)C3)c3ccccc3C(=O)N1CC2` (stereo not drawn), -4.53%. As for `CCCCn1c(=O)[nH]c2nc3cc(NC(C)=O)ccc3nc2c1=O`, the figure is -8.15%; as for `COc1ccc(-c2c(C)[n+]([O-])c(C)c(C)[n+]2[O-])cc1OC`, 0.147%; as for `CC(=O)NC1C(=O)N=C(SCC(=O)NC(C)c2ccccc2)NC1=O` (stereo not drawn), 3.81%.

Regarding `Cc1ccc(OCCNC(=O)/C=C/c2ccco2)cc1C`, the “% Inhibition @ 10 uM” value is -1.24%. Under `Cc1ccccc1C1C(=O)N(C2CCCCC2)CC(=O)N1C1CCCCC1` (stereo not drawn) stands -3.94%. `Cc1ccnc(NC2(C(F)(F)F)N=C(c3ccccc3)NC2=O)c1` (stereo not drawn): the “% Inhibition @ 10 uM” value is 0.00626%. As to `CCOc1cc(Br)c(C2C(C#N)=C(N)Oc3c2ccc2ccccc32)cc1OC` (stereo not drawn), the “% Inhibition @ 10 uM” value stood at 3.06%.

Consider `c1ccc(-c2ccc(CN3CCN(c4ccccn4)CC3)cc2)cc1`, for which the “% Inhibition @ 10 uM” value is -0.405%.

With `Nc1cc(O)nc(SCC(=O)Nc2ccc(Br)cn2)n1`, the “% Inhibition @ 10 uM” value is listed as -3.28%. Under `CCOCCOc1nc2ccccc2s1` stands 0.827%.

As to `c1ccc2c(c1)[nH]c1nc3nncn3nc12`, the “% Inhibition @ 10 uM” value was -8.44%. As for `Cn1nc(C(F)(F)F)cc1C(=O)NC12CC3CC(CC(C3)C1)C2`, the figure is 13.7%; as for `Cc1ccc([N+]2=C3SCCCN3C(O)(c3ccc(OC(F)F)cc3)C2)cc1` (stereo not drawn), -3.02%.

On to `Cc1ccc(C(=O)O)c2c1N[C@@H](c1ccccc1F)[C@H]1CC=C[C@@H]21`, for which the “% Inhibition @ 10 uM” value is -4.59%. As for `COc1ccc2c(CNCCc3ccc(OC)c(OC)c3)c(C(=O)O)n(Cc3ccccc3C)c2c1`, the figure is -4.37%; as for `O=C(Nc1c(-c2ccc(F)cc2)nc2ccccn12)c1ccc2ccccc2c1`, 0.813%. As for `CC(=O)N1CCN(C2CCC(C)CC2)CC1` (stereo not drawn), the figure is 2.91%; as for `Cc1ccc(C2CC(=O)NC3=C2C(=O)CC(C)(C)C3)cc1Br` (stereo not drawn), -7.27%. Under `O=C(NC1CCCCC1)c1nc(-c2ccncc2)no1` stands 1.51%; under `O=C(NCc1cccnc1)c1ccc(-c2ccccc2)cc1`, 3.53%; under `Cc1ccccc1CS(=O)(=O)Cc1ccc(C(=O)N2CCOCC2)o1`, -1.79%.

In the case of `COc1ccc(NC(=O)c2cc(Cl)ccc2Cl)cc1OC`, the “% Inhibition @ 10 uM” value was found to be 1.08%.

On to `COC(=O)c1cc2cc(Br)ccc2[nH]1`, for which the “% Inhibition @ 10 uM” value turned out to be 4.31%. Under `CCCCNC(=O)c1c(C)c(C(=O)OCC)n(CC)c1C` stands 1.72%; under `COc1ccc(C(=O)CSc2nc(-c3ccccc3)c[nH]2)cc1`, 2.9%; under `COc1ccc(S(=O)(=O)N2CCCCC2)cc1-c1nnc2c3ccccc3c(C)nn12`, 2.31%. Under `CCCS(=O)(=O)NCCc1cc2ccc(C)cc2nc1O` stands -1.7%; under `CCOC(=O)C(/C=N/C12CC3CC(CC(C3)C1)C2)=C(\O)OCC`, -5.28%; under `CC1=C(C)CC2C(=O)N(c3ccccc3F)C(=O)C2C1` (stereo not drawn), -0.185%. Turning to `Cc1ccccc1-c1noc(CCC(=O)NCC(C)C)n1`, the “% Inhibition @ 10 uM” value is reported as 0.366%.

On to `Cc1ccc(Cn2ncc3ccccc32)cc1`, for which the “% Inhibition @ 10 uM” value was -7.24%. As for `Clc1ccc2nc(NC3=NCN(CCN4CCOCC4)CN3)nc(-c3ccccc3)c2c1`, the “% Inhibition @ 10 uM” value was -1.69%. Consider `CCOc1cc2c(cc1/C=C1/SC(=O)N(Cc3ccccc3)C1=O)OCO2`, for which the “% Inhibition @ 10 uM” value was -14.4%.

For the compound `COC(=O)C1=CN(C(C)C)C=C(C(=O)OC)C1c1cccc(Oc2ccccc2)c1`, the “% Inhibition @ 10 uM” value was found to be 4.99%.

On to `COc1cc(S(=O)(=O)N2CCN(c3ccc(C)cc3)CC2)c(OC)cc1Br`, for which the “% Inhibition @ 10 uM” value is on record as 1.28%. For the compound `c1ccc(-c2nc(-c3ccccc3)c(-c3ccccc3)[nH]2)cc1`, the “% Inhibition @ 10 uM” value is listed as -1.76%. As for `CCOC(=O)c1c2c(c(S)sc1=N)CCC2`, the figure is 5.59%. On to `CC1(C)Oc2ccc3ccc(=O)oc3c2/C(=C/c2ccc([N+](=O)[O-])cc2)C1=O`, for which the “% Inhibition @ 10 uM” value was determined as 3.74%. As for `CSc1nc2c(sc3ccccc32)c(=O)n1CC1CCCO1` (stereo not drawn), the “% Inhibition @ 10 uM” value is recorded as 3.05%. As for `O=C(CC1CC2CCC1C2)N1CCN(Cc2ccc(Cl)cc2)CC1` (stereo not drawn), the figure is -1.46%. As for `O=C(C1=C(O)C(=O)N(c2ncccn2)C1c1cccc(F)c1)c1ccccc1` (stereo not drawn), the figure is -6.62%. In the case of `NC(=O)C1CCCN(Cc2cccc(Cl)c2Cl)C1` (stereo not drawn), the “% Inhibition @ 10 uM” value was -2.95%. As for `COc1ccc(CCN2C(=O)C3C4CCC(C4=C(C)C)C3C2=O)cc1OC` (stereo not drawn), the figure is -2.8%. As for `NC(=O)c1c(NC(=O)COCc2cc(-c3cccs3)on2)sc2c1CCCC2`, the figure is 3.62%; as for `CC1(C)[C@H]2CC=C(CN3CCN(c4ccccc4)CC3)[C@@H]1C2`, -0.446%; as for `Cc1cccc(-n2nnc(C(=O)N3CCc4ccccc4C3)c2N)c1`, -4.38%. On to `COc1ccc(NC(=O)CN(c2cc(C)ccc2OC)S(C)(=O)=O)c(OC)c1`, for which the “% Inhibition @ 10 uM” value is on record as 2.33%. As for `Cc1ccccc1-n1c(C)nc2ccsc2c1=O`, the figure is -1.12%; as for `CC(C)c1ccc(-c2c(NCCCN3CCN(C4CCCCC4)CC3)c(=O)c2=O)cc1`, 1.42%; as for `O=C1CC(c2cc(F)ccc2F)c2cc3c(cc2N1)OCO3` (stereo not drawn), 0.475%.

As to `O=C(Nc1ccc(S(=O)(=O)N2CCCC2)cc1)C(c1ccccc1)c1ccccc1`, the “% Inhibition @ 10 uM” value is recorded as -3.97%. For the compound `CCOc1c(O)cc2c(C)cc(=O)oc2c1OCC`, the “% Inhibition @ 10 uM” value came to 1.8%. Under `COC(=O)C1=C(C)N(Cc2ccco2)C(=O)/C1=C\c1ccc(Cl)c(Cl)c1` stands 0.131%. Under `CCOc1ccc(C(=O)Nc2ccc(N(CC)CC)cc2)cc1` stands 0.13%. As for `Cc1ccc(-c2cc(-c3ccccc3)nc(Cl)n2)cc1`, the figure is 9.86%; as for `CCOc1cc(C=C2C(=O)c3ccccc3C2=O)cc(Br)c1O`, 0.275%; as for `CCOc1ccc(N2CC(=O)NC2=O)cc1`, -4.18%. For the compound `CC(=O)N1CCC2(CC1)OC(=O)C(C)=C2C(=O)NCc1ccc(C)cc1`, the “% Inhibition @ 10 uM” value was -1.04%.

Turning to `Cc1ccccc1CS(=O)(=O)Cc1ccc(C(=O)Nc2noc3ccccc23)o1`, the “% Inhibition @ 10 uM” value is 0.569%.

As to `COc1cccc(Cn2cc(C(=O)c3ccc(C)cc3)c(=O)c3ccc(C)nc32)c1`, the “% Inhibition @ 10 uM” value was 9.54%. As for `CC(=O)c1cccc(N2Cc3ccccc3C2)c1`, the figure is 2%; as for `Cc1[nH]c2ccccc2c1/C=N/NC(N)=S`, 3.39%. Under `CN1CCC(NCCC2CCCN2C)CC1` (stereo not drawn) stands -4.04%; under `Cc1cccc(OCCSc2nc3ccccc3n2CCC(=O)O)c1`, 16.9%; under `C=CCOc1ccc(CNc2ccc(N3CCCC3)cc2)cc1OC`, 0.408%. As for `COc1ccc(N2C(=O)CCC(C(C)=O)=C2C)cc1`, the figure is -1.69%.

As for `CCOc1ccc(-c2cn(-c3ccc(OC)cc3)c(SCC(=O)Nc3nccs3)n2)cc1`, the “% Inhibition @ 10 uM” value is 6.5%. Under `N=C(NC(=O)c1ccc(Cl)c(Cl)c1)Nc1nc(=O)c2ccccc2s1` stands -2.87%.

Regarding `COc1cc(C)c(CN2CCCC(C)C2)cc1C` (stereo not drawn), the “% Inhibition @ 10 uM” value is on record as -4.14%. As for `CC(C)(C)c1ccc(C(=O)O/N=C(\N)c2ccc(Br)cc2)cc1`, the figure is 0.484%; as for `CC(C)CN1C(=O)c2ccccc2C(C(=O)NCc2ccco2)C1c1cccs1` (stereo not drawn), 1.69%.

In the case of `Cc1nc2c(-c3ccccc3)c(C)nn2c(C)c1CC(=O)NCC1CCCO1` (stereo not drawn), the “% Inhibition @ 10 uM” value is given as -4.24%. As for `CCOc1ccc(N2CC(C(=O)NC3=NCCS3)CC2=O)cc1` (stereo not drawn), the figure is -3.53%.

For the compound `COc1ccc(NC(=O)c2ccc(Cl)cc2)c2ncccc12`, the “% Inhibition @ 10 uM” value is given as 3.7%. In the case of `CN(C)c1ccc(/C=C2\C(=O)N(c3ccc([N+](=O)[O-])cc3)N=C2c2ccccc2)cc1`, the “% Inhibition @ 10 uM” value is on record as 4.22%. Under `O=C(CSc1nccc(O)n1)n1c2c(c3ccccc31)CCCC2` stands 3.66%.

Consider `O=C1COC(c2ccccc2)C2CCCCN12` (stereo not drawn), for which the “% Inhibition @ 10 uM” value is listed as -2.76%. As for `Cc1ccccc1C(=O)Nc1sc2c(c1C(N)=O)CCC(C)C2` (stereo not drawn), the figure is -9.66%; as for `COC(=O)C1=CN(C)C=C(C(=O)OC)C1c1ccc(O)c(OC)c1`, -1.48%; as for `COc1cc(SC)ccc1C(=O)NCc1ccc2[nH]c3c(c2c1)CCCC3`, 2.6%.

Regarding `C=CCOc1ccc(CC(NC(=O)OCc2ccccc2)C(=O)NCC#N)cc1` (stereo not drawn), the “% Inhibition @ 10 uM” value is recorded as -6.98%. As for `Cn1c(=O)n(Cc2ccccc2Cl)c2ccccc21`, the figure is 10.2%.

As to `O=C(Nc1ccc(Sc2ccc(NC(=O)C(F)(F)F)cc2)cc1)C(F)(F)F`, the “% Inhibition @ 10 uM” value is given as 3.69%.

In the case of `Cn1c(=O)c2c(nc3n(CCc4ccccc4)c(C45CC6CC(CC(C6)C4)C5)cn23)n(C)c1=O`, the “% Inhibition @ 10 uM” value was found to be 0.503%. Under `CCOc1ccc(OCc2cccc(C(=O)N3CCCC3)c2)cc1` stands 8.19%; under `C=CCn1c(SCC(=C)C)nc2c1c(=O)n(C)c(=O)n2C`, 0.674%. Under `Cc1cc(C)n2nc3nc(N4CCCCC4)nc(-c4ccccc4)c3c2n1` stands 6.01%; under `CCn1c2ccccc2c2cc(CN(C)C3CCCCC3)ccc21`, 4.9%.
